# Measured values: the supplement of paper PMC12578646, “Prodrug florfenicol amine is activated by intrinsic resistance to target Mycobacterium abscessus” (Nature Microbiology, 2025)
# ± gives the standard deviation of the averaged measurements. M. abscessus ATCC 19977 and its deletion, point and complemented mutants after 5 days of drug at 37 °C plus 24 h of resazurin. Growth in % of untreated wells at the dose given (lower = more inhibition); checkerboards give % inhibition (higher = more inhibition); IC50 from the fitted curve (lower = more potent). No active / inactive call. IC50 values come from the same 384-well curves. Growth is not capped and can exceed 100%. The direction of the checkerboard scale is read from the raw signals. Capreomycin is a mixture.
# What was measured:
# Assay in all cases: growth relative to untreated wells; higher = more growth (less inhibition)
# [1] = tested on: Mycobacterium abscessus ATCC 19977 Eis2 E120fs
# Description: (§1)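 384-well two-fold dose series, two replicates; 5 days at 37 °C, then 24 h with resazurin; fluorescence scaled to growth and killed controls.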
# [2] = tested on: Mycobacterium abscessus ATCC 19977 Eis2 T258R
# Description: as §1
# [3] = tested on: Mycobacterium abscessus ATCC 19977 Eis2 Y227D
# Description: as §1
# [4] = tested on: Mycobacterium abscessus ATCC 19977 Eis2 Y255*
# Description: as §1
# [5] = tested on: Mycobacterium abscessus ATCC 19977 Eis2 Y284*
# Description: as §1
# [6] = tested on: Mycobacterium abscessus ATCC 19977 WhiB7 F24fs
# Description: as §1
# [7] = tested on: Mycobacterium abscessus ATCC 19977 WhiB7 L37P
# Description: as §1
# [8] = tested on: Mycobacterium abscessus ATCC 19977 WhiB7 R76del
# Description: as §1
# [9] = tested on: Mycobacterium abscessus ATCC 19977 WhiB7 T70fs
# Description: as §1
# [10] = tested on: Mycobacterium abscessus ATCC 19977 Δeis2
# Description: as §1
# [11] = tested on: Mycobacterium abscessus ATCC 19977 ΔwhiB7
# Description: as §1
# [12] = tested on: Mycobacterium abscessus ATCC 19977
# Description: as §1
compound,measurement,setting,value
CS(=O)(=O)c1ccc([C@@H](O)[C@H](N)CF)cc1 [florfenicol amine],growth,[1]; 0.25 µg/mL,102 ± 1.7%
same,growth,[1]; 0.5 µg/mL,114 ± 1.9%
same,growth,[1]; 1 µg/mL,107 ± 4.6%
same,growth,[1]; 2 µg/mL,107 ± 6.4%
same,growth,[1]; 4 µg/mL,109 ± 4%
same,growth,[1]; 8 µg/mL,108 ± 2.4%
same,growth,[1]; 16 µg/mL,111 ± 9.5%
same,growth,[1]; 32 µg/mL,127 ± 4.8%
same,growth,[1]; 64 µg/mL,60.2 ± 23%
same,growth,[1]; 128 µg/mL,10.4 ± 0.51%
same,growth,[1]; 256 µg/mL,12.3 ± 2.9%
same,growth,[1]; 512 µg/mL,4.04 ± 0.062%
same,growth,[2]; 0.25 µg/mL,104 ± 10%
same,growth,[2]; 0.5 µg/mL,109 ± 2%
same,growth,[2]; 1 µg/mL,103 ± 1.2%
same,growth,[2]; 2 µg/mL,105.6 ± 0.96%
same,growth,[2]; 4 µg/mL,99.3 ± 3.1%
same,growth,[2]; 8 µg/mL,105 ± 4.3%
same,growth,[2]; 16 µg/mL,104 ± 3.3%
same,growth,[2]; 32 µg/mL,116.6 ± 0.64%
same,growth,[2]; 64 µg/mL,66.2 ± 7%
same,growth,[2]; 128 µg/mL,19.6 ± 5%
same,growth,[2]; 256 µg/mL,12.9 ± 4.2%
same,growth,[2]; 512 µg/mL,0.806 ± 0.13%
same,growth,[3]; 0.25 µg/mL,113 ± 6%
same,growth,[3]; 0.5 µg/mL,113 ± 9.5%
same,growth,[3]; 1 µg/mL,101 ± 0.15%
same,growth,[3]; 2 µg/mL,99.9 ± 7.1%
same,growth,[3]; 4 µg/mL,110 ± 4.2%
same,growth,[3]; 8 µg/mL,112 ± 3%
same,growth,[3]; 16 µg/mL,115 ± 3.8%
same,growth,[3]; 32 µg/mL,125 ± 3.7%
same,growth,[3]; 64 µg/mL,57.9 ± 4%
same,growth,[3]; 128 µg/mL,13.5 ± 3.8%
same,growth,[3]; 256 µg/mL,12 ± 0.18%
same,growth,[3]; 512 µg/mL,2.88 ± 0.37%
same,growth,[4]; 0.25 µg/mL,104 ± 4.5%
same,growth,[4]; 0.5 µg/mL,107 ± 6.7%
same,growth,[4]; 1 µg/mL,103 ± 6.3%
same,growth,[4]; 2 µg/mL,105 ± 5.9%
same,growth,[4]; 4 µg/mL,103 ± 2.9%
same,growth,[4]; 8 µg/mL,105.9 ± 0.44%
same,growth,[4]; 16 µg/mL,115 ± 1.9%
same,growth,[4]; 32 µg/mL,123 ± 3.8%
same,growth,[4]; 64 µg/mL,41.3 ± 20%
same,growth,[4]; 128 µg/mL,6.39 ± 2.2%
same,growth,[4]; 256 µg/mL,6.78 ± 4.2%
same,growth,[4]; 512 µg/mL,0.985 ± 1.8%
same,growth,[5]; 0.25 µg/mL,103.7 ± 0.5%
same,growth,[5]; 0.5 µg/mL,104 ± 4.4%
same,growth,[5]; 1 µg/mL,102 ± 5.9%
same,growth,[5]; 2 µg/mL,103.2 ± 0.93%
same,growth,[5]; 4 µg/mL,98.4 ± 4.1%
same,growth,[5]; 8 µg/mL,106 ± 1.6%
same,growth,[5]; 16 µg/mL,112 ± 2.5%
same,growth,[5]; 32 µg/mL,118 ± 2.2%
same,growth,[5]; 64 µg/mL,41.8 ± 10%
same,growth,[5]; 128 µg/mL,10.6 ± 0.59%
same,growth,[5]; 256 µg/mL,13 ± 3.1%
same,growth,[5]; 512 µg/mL,2.18 ± 0.84%
same,growth,[6]; 0.25 µg/mL,107 ± 1.7%
same,growth,[6]; 0.5 µg/mL,107 ± 3.4%
same,growth,[6]; 1 µg/mL,103 ± 5.2%
same,growth,[6]; 2 µg/mL,110 ± 3.6%
same,growth,[6]; 4 µg/mL,103 ± 5.3%
same,growth,[6]; 8 µg/mL,105 ± 0.25%
same,growth,[6]; 16 µg/mL,101.2 ± 0.63%
same,growth,[6]; 32 µg/mL,111 ± 2.6%
same,growth,[6]; 64 µg/mL,123.7 ± 0.67%
same,growth,[6]; 128 µg/mL,18.4 ± 5.4%
same,growth,[6]; 256 µg/mL,-1.49 ± 0.6%
same,growth,[6]; 512 µg/mL,-0.814 ± 0.12%
same,growth,[7]; 0.25 µg/mL,102 ± 1.2%
same,growth,[7]; 0.5 µg/mL,113 ± 5.2%
same,growth,[7]; 1 µg/mL,109 ± 2.8%
same,growth,[7]; 2 µg/mL,102 ± 14%
same,growth,[7]; 4 µg/mL,105 ± 1.4%
same,growth,[7]; 8 µg/mL,111 ± 3.2%
same,growth,[7]; 16 µg/mL,109 ± 9.8%
same,growth,[7]; 32 µg/mL,116.1 ± 1%
same,growth,[7]; 64 µg/mL,126 ± 1.8%
same,growth,[7]; 128 µg/mL,6.95 ± 1.9%
same,growth,[7]; 256 µg/mL,-1.71 ± 0.17%
same,growth,[7]; 512 µg/mL,-0.738 ± 0.057%
same,growth,[8]; 0.25 µg/mL,103 ± 2.4%
same,growth,[8]; 0.5 µg/mL,108 ± 3%
same,growth,[8]; 1 µg/mL,103.7 ± 0.34%
same,growth,[8]; 2 µg/mL,105 ± 3.2%
same,growth,[8]; 4 µg/mL,108 ± 3.5%
same,growth,[8]; 8 µg/mL,99.3 ± 5.9%
same,growth,[8]; 16 µg/mL,101 ± 3.2%
same,growth,[8]; 32 µg/mL,110 ± 5.2%
same,growth,[8]; 64 µg/mL,123.7 ± 0.49%
same,growth,[8]; 128 µg/mL,14.9 ± 0.31%
same,growth,[8]; 256 µg/mL,-1.75 ± 0.72%
same,growth,[8]; 512 µg/mL,-1.15 ± 0.46%
same,growth,[9]; 0.25 µg/mL,102 ± 5.1%
same,growth,[9]; 0.5 µg/mL,100.8 ± 0.59%
same,growth,[9]; 1 µg/mL,93.7 ± 2.2%
same,growth,[9]; 2 µg/mL,107 ± 2%
same,growth,[9]; 4 µg/mL,98.8 ± 1%
same,growth,[9]; 8 µg/mL,97.5 ± 2.7%
same,growth,[9]; 16 µg/mL,97.4 ± 1.8%
same,growth,[9]; 32 µg/mL,108 ± 0.13%
same,growth,[9]; 64 µg/mL,123.8 ± 1.2%
same,growth,[9]; 128 µg/mL,15.3 ± 5.1%
same,growth,[9]; 256 µg/mL,-3.95 ± 1.1%
same,growth,[9]; 512 µg/mL,-3.38 ± 0.79%
same,growth,[10]; 0.25 µg/mL,96.9 ± 1.9%
same,growth,[10]; 0.5 µg/mL,99.3 ± 2%
same,growth,[10]; 1 µg/mL,96.5 ± 2.5%
same,growth,[10]; 2 µg/mL,97.2 ± 3.2%
same,growth,[10]; 4 µg/mL,96.2 ± 0.97%
same,growth,[10]; 8 µg/mL,96.3 ± 1.2%
same,growth,[10]; 16 µg/mL,101.6 ± 0.15%
same,growth,[10]; 32 µg/mL,114 ± 1.6%
same,growth,[10]; 64 µg/mL,114.8 ± 0.18%
same,growth,[10]; 128 µg/mL,42 ± 4.1%
same,growth,[10]; 256 µg/mL,27.55 ± 0.13%
same,growth,[10]; 512 µg/mL,6.2 ± 3.7%
same,growth,[11]; 0.25 µg/mL,101 ± 4.3%
same,growth,[11]; 0.5 µg/mL,104 ± 1.7%
same,growth,[11]; 1 µg/mL,101 ± 1.2%
same,growth,[11]; 2 µg/mL,107 ± 9.6%
same,growth,[11]; 4 µg/mL,103 ± 6.9%
same,growth,[11]; 8 µg/mL,97.4 ± 2.2%
same,growth,[11]; 16 µg/mL,93.25 ± 0.73%
same,growth,[11]; 32 µg/mL,110 ± 4.4%
same,growth,[11]; 64 µg/mL,142.8 ± 1.1%
same,growth,[11]; 128 µg/mL,29.4 ± 11%
same,growth,[11]; 256 µg/mL,-2.8 ± 3.9%
same,growth,[11]; 512 µg/mL,-2.41 ± 5.4%
same,growth,[12]; 0.25 µg/mL,101 ± 3.7%
same,growth,[12]; 0.5 µg/mL,107.6 ± 0.52%
same,growth,[12]; 1 µg/mL,112 ± 6.2%
same,growth,[12]; 2 µg/mL,116 ± 1.2%
same,growth,[12]; 4 µg/mL,121.6 ± 0.47%
same,growth,[12]; 8 µg/mL,94.7 ± 1.2%
same,growth,[12]; 16 µg/mL,35.9 ± 15%
same,growth,[12]; 32 µg/mL,11.1 ± 2.2%
same,growth,[12]; 64 µg/mL,5.76 ± 2.3%
same,growth,[12]; 128 µg/mL,1.22 ± 2.5%
same,growth,[12]; 256 µg/mL,-1.27 ± 0.69%
same,growth,[12]; 512 µg/mL,-0.88 ± 0.65%
